Results published in PubChem BioAssay AID463173 (ICCB-Longwood Screening Facility, Harvard Medical School, 2010).
About 1,700 (3.3%) of roughly 52,000 compounds were called active. Rule as the data show it: active = survival mostly below about 52% (no sharp cut-off); inactive = mostly above about 56%. This is one part of the list.

What follows are compounds tested on Wild type (assay: S. aureus survival, RN4220 and DeltatarO strains – OD600, teichoic acid synthesis inhibitors, primary screen (AID 463173)). Details: S. aureus RN4220 wild type/DeltatarO growth, OD600, 18 h, hits give low values, screened at 18.75 µg/mL (by protocol).

Structure (SMILES)	survival
CCOC(=O)N1CCc2c(sc(NCc3cc(OC)ccc3OC)c2C(=O)Nc2cc(OC)ccc2OC)C1	inactive: 138%
CS(=O)(=O)N1CCN(C(=O)c2ccccc2)CC1	inactive: 110%
O=C(/C=C/c1ccco1)Nc1ccc(-c2nc3ccccc3[nH]2)cc1	inactive: 114%
COc1ccc(CNCC#N)cc1OC	inactive: 109%
COC(=O)c1cc(-c2ccc(Cl)cc2)c2c(=O)[nH]c(=O)n(C)c2n1	inactive: 102%
CCOCCCNC(=O)C1CCN(c2nc3ccc(C)cc3[nH]2)CC1	inactive: 75%
Cc1nn(C2CC(=O)N(c3ccc(Cl)cc3)C2=O)c(C)c1C (stereo unspecified)	inactive: 98%
COc1ccc(N2CCN(C(=O)Cn3cnc4sc(C)c(S(=O)(=O)N5CCCCC5)c4c3=O)CC2)cc1	inactive: 90%
Cc1ccc(Cn2c(=O)n(CCc3ccccc3)c(=O)c3sc4ccccc4c32)cc1	inactive: 80%
Cc1ccc(NC(=O)CCn2cccn2)c(C)c1	inactive: 71%
COc1ccc(NC(=O)CCc2c(C)nn(-c3ccc(N4CCCC4)nn3)c2C)cc1Cl	inactive: 75%
COc1cccc(C(C(=O)NCC2CCCO2)N(CC2CCCO2)C(=O)CC2C(=O)c3ccccc3S2(=O)=O)c1 (stereo unspecified)	inactive: 107%
Cc1ccc(-c2nnc(SC(C)C)n2-c2ccccc2)cc1	inactive: 114%
O=C(CSc1cn(CCNC(=O)c2ccccc2F)c2ccccc12)Nc1ccc2c(c1)OCCO2	inactive: 78%
O=c1[nH]c2cc3c(cc2cc1CNCc1ccc2c(c1)OCO2)OCCO3	inactive: 104%
COCCn1c(C)cc(O)c(C(c2ccccc2)N2CCN(c3ccccc3F)CC2)c1=O (stereo unspecified)	inactive: 118%
O=C(c1ccccc1)N1CCC(c2nc3c(nnn3Cc3ccccc3)c(=O)[nH]2)CC1	active: 0%
CC(Nc1ccc(-c2nc(-c3cccnc3)no2)cc1[N+](=O)[O-])c1ccccc1 (stereo unspecified)	inactive: 87%
CCS(=O)(=O)c1ccc(C(=O)N2CCN(c3nc4c(OC)ccc(C)c4s3)CC2)cc1	inactive: 91%
Cc1ccc(NC(=O)CCn2nc(C)c3c(C)n(-c4ccccc4)nc3c2=O)cc1Cl	inactive: 121%
O=C(Cn1ncc2ccsc2c1=O)N1CCN(c2ccc(Cl)cc2)CC1	inactive: 72%
COc1ccccc1-c1nc(CNC(=O)NC2CCCCC2)c(C)o1	inactive: 71%
COc1cccc(NC(=O)CSc2cc(C)c3ccccc3n2)c1	inactive: 73%

Structure (SMILES)	survival
COc1ccc(NC(=O)c2c(-c3ccc(C)cc3)nnc3ccccc23)cc1OC	inactive: 80%
O=C(c1cnccn1)N(Cc1ccc(Cl)cc1)Cc1cc2cc3c(cc2[nH]c1=O)OCCO3	inactive: 88%
Cc1ccc2c(Sc3ccc(Cl)cc3)c(C(=O)N3CCCCC3)[nH]c2c1	inactive: 112%
CON(C)c1nc(OCCNC(=O)OCc2ccc(Cl)cc2Cl)nc(N(C)C)n1	inactive: 110%
CC1CCCCN1Cc1nc2c(c(=O)n(C)c(=O)n2C)n1Cc1ccc(Br)cc1 (stereo unspecified)	inactive: 81%
CC(C)c1ccc(NC(=O)c2cn(C3CCCC3)c(=O)c3c2c2ccccc2n3C)cc1	inactive: 87%
CCCOc1ccc(NC(=O)CC2C(=O)N(c3cccc(OC)c3)C(=O)N2CCc2ccncc2)cc1 (stereo unspecified)	inactive: 73%
CCOc1ccc(-c2csc3ncn(CC(N)=O)c(=O)c23)cc1	inactive: 107%
N#C/C(=C/c1cccs1)C(N)=S	inactive: 87%
CC(=O)c1ccc(S(=O)(=O)N2CCC(Oc3ccc(-n4cnnn4)cc3)CC2)cc1	inactive: 87%
O=C(Nc1cccc(C(=O)OCc2cc(=O)n3nc(C4CC4)sc3n2)c1)c1ccc(F)cc1	inactive: 81%
CCCC(=O)NC1CC(=O)N(c2ccc3c(c2)OCCO3)C1 (stereo unspecified)	inactive: 97%
CCc1ccc(NC(=O)CN2C(=O)C(=O)c3ccccc32)cc1	inactive: 65%
O=C(Nc1cccc(Cl)c1)N1Cc2ccccc2Oc2ncccc21	inactive: 113%
COc1ccc(S(=O)(=O)Nc2ccc(O)c(Sc3nc4ccccc4s3)c2)cc1	inactive: 93%
Cc1c(C(=O)N(C)C)sc2c1c(=O)n(-c1ccc(Cl)c(Cl)c1)c(=O)n2Cc1ccc(F)cc1	inactive: 79%
COc1ccccc1C1C(C(N)=O)=C(C)Nc2nc(SCc3ccccc3F)nn21 (stereo unspecified)	inactive: 80%
O=C(Nc1ccccn1)C1(c2ccccc2)CCCC1	inactive: 108%
CN(C(=O)CSc1nc2ccc(NC(=O)c3ccc(F)cc3)cc2s1)c1ccccc1	inactive: 75%
CCOc1ccccc1NC(=O)c1ccc2oc(=O)c(S(=O)(=O)c3ccc(F)cc3)cc2c1	inactive: 65%
Cc1ccccc1CCNC(=O)c1cc2ccccn2n1	inactive: 84%
Cc1cccc(N2CCN(C(=O)Cn3nc(C)c4sc5ccccc5c4c3=O)CC2C)c1 (stereo unspecified)	inactive: 116%
CCn1cc(C(=O)N(C)Cc2ccccc2)c(=O)c2cc(S(=O)(=O)N3CCCCC3)ccc21	inactive: 82%

Structure (SMILES)	survival
COc1ccc(-c2onc(C)c2C)cc1S(=O)(=O)NC1CCCCC1	inactive: 71%
Cc1cccc(N2CCN(c3c(CN4CCCC4)c(=O)oc4ccccc34)CC2)c1C	inactive: 88%
COC(=O)C1=C(c2ccccc2)c2ccccc2S(=O)(=O)N1CC(=O)Nc1cc(C)ccc1C	inactive: 77%
Cc1ccc(CN2C(=O)C3(SCC(=O)N3c3ccc(C)c(C)c3)c3ccccc32)cc1 (stereo unspecified)	inactive: 95%
COc1ccccc1C/C(N)=N/OC(=O)c1ccccc1	inactive: 108%
CCOC(=O)c1cccc(NC(=O)CCc2c(C)nc3c4cccnc4nn3c2C)c1	inactive: 89%
CCOC(=O)Cn1nc(N2CCN(c3ccc(F)cc3)CC2)ccc1=O	inactive: 73%
Cc1c(C(=O)N2CCOCC2)oc2c1-c1nn(CC(=O)NCc3ccccc3)cc1CC2	inactive: 87%
CSc1ccc(Nc2nn(-c3ccc(OC(F)(F)F)cc3)nc2C(C)=O)cc1	inactive: 88%
CCOCCn1ccc2c(OCC(=O)Nc3cc(C(F)(F)F)ccc3Cl)cccc2c1=O	inactive: 75%
COc1ccccc1Cn1c(CNS(=O)(=O)c2c(C)cc(C)cc2C)nc2cccnc21	inactive: 131%
Cc1cccc(C(=O)Nc2cc3c(cc2N2CCCCC2)n(C)c(=O)n3C)c1	inactive: 85%
CCn1cc(S(=O)(=O)c2ccccc2)c(=O)c2cc(F)c(N3CCCCCC3)cc21	inactive: 74%
Cc1ccc(-n2nc(C)c3c(C)c(CCC(=O)NCc4cccc(Cl)c4)c(C)nc32)cc1C	inactive: 125%
CC(=O)c1cccc(NC(=O)c2ccc3c(c2)CCN3S(=O)(=O)c2ccccc2)c1	inactive: 71%
CCOCCCn1c(=N)c(S(=O)(=O)c2ccccc2)cc2c(=O)n3cc(C)ccc3nc21	inactive: 93%
O=C(O)CCn1c(=S)n(CCC(=O)O)c2ccccc21	inactive: 104%
Cc1ccccc1OCC(=O)Nc1ccc(S(=O)(=O)Nc2ncccn2)cc1	inactive: 130%
O=C(CSc1c2c(nc3ccc(Cl)cc13)CCCC2)N1CCCCC1	inactive: 29%
O=C(CSc1ncn[nH]1)N1CCOCC1	inactive: 112%
CCOc1ccc(CCNC(=O)c2cc3cc4ccc(OC)cc4nc3s2)cc1OCC	inactive: 101%
COCCNC(=O)C(=O)Nc1ccc2nc3n(c(=O)c2c1)CCCCC3	inactive: 87%
C=Cc1ccc(Cn2c(C(=O)O)c(CNCc3cc(OC)ccc3OC)c3ccc(C)cc32)cc1	inactive: 92%

Structure (SMILES)	survival
COc1ccc(C(=O)Oc2c(Sc3ccc(C)cc3)c(C)nn2C(C)(C)C)c(OC)c1	inactive: 60%
Nc1c2c(nc3c1CCC3)CCCC2	inactive: 102%
C=CCNC(=O)Nc1ccc2oc(C)nc2c1	inactive: 106%
COc1ccc(C2NC(=O)N(C)C3=C2C(=O)N(c2ccccc2)C3)cc1 (stereo unspecified)	inactive: 88%
COc1ccc(-c2nc3c(C#N)c[nH]n3c2NC2CCCCC2)cc1	inactive: 45%
COc1ccc(CCNC(=O)C(C)n2nc(C)c3sc4ccccc4c3c2=O)cc1OC (stereo unspecified)	inactive: 101%
CCC12CN3CC(C)(CN(C1)C3c1c(C)[nH]c3ccccc13)C2=O (stereo unspecified)	inactive: 85%
CCOc1ccc(C2C(C(=O)Nc3ccc(C)cc3C)=C(C)Nc3c(C(=O)Nc4ccc(C)cc4)cnn32)cc1OC (stereo unspecified)	inactive: 83%
COc1ccc(-c2nc(C)c(CCNC(=O)c3cccc(C)c3)s2)cc1OC	inactive: 82%
CCCCC(=O)Nc1nnc(S(=O)(=O)N2CCCCCC2)s1	inactive: 91%
COC(=O)c1cc2sccc2n1Cc1ccc(F)cc1	inactive: 135%
Cc1cccc(-c2cc(NC(=O)c3ccccc3C)n(-c3ccccc3)n2)c1	inactive: 71%
CCN(c1cccc(C)c1)C(CNS(=O)(=O)c1ccccc1)c1ccccc1 (stereo unspecified)	inactive: 77%
CSc1ccc(NC(=O)NCCn2cnc3cccnc32)cc1	inactive: 108%
Cc1ccc(C)c(CNC(=O)C2CCCCN2S(=O)(=O)c2ccc(F)cc2)c1 (stereo unspecified)	inactive: 118%
CCOc1ccc(NC(=O)c2cccc(N3CCCS3(=O)=O)c2)cc1	inactive: 72%
Cc1ccc(C)c(N2CCN(C(=O)CN3C(=O)COc4ccc(S(=O)(=O)N5CCOCC5)cc43)CC2)c1	inactive: 86%
CCC(=O)Nc1ccc(N2CCCCC2)cc1	inactive: 103%
CCC(=O)N1c2ccccc2CC1C(=O)NCCCN1CCN(c2ccccc2)CC1 (stereo unspecified)	inactive: 83%
CC(=O)N(CCCN1CCOCC1)Cc1ccncc1	inactive: 117%
Cc1nc(C)c(-c2csc(NCc3ccccc3)n2)s1	inactive: 123%
O=C(Nc1ccc(F)c(Cl)c1)C1CCCN(c2ncnc3onc(-c4ccc(F)cc4)c23)C1 (stereo unspecified)	inactive: 74%
